Results taken from PubChem BioAssay AID1466 (National Center for Advancing Translational Sciences (NCATS), 2008).
The whole screen tested about 200,000 compounds, of which about 10 (0.005%) were called active. The call rests on the fitted dose curve; in most records, active means well fitted inhibition curve with a large enough effect; inconclusive means small, poorly fitted or top-dose-only effect, or effect the other way, or another doubt; inactive means no such curve, though single readings can be large or run the other way. Inconclusive means that the source gave no clear call. A potency beside an inconclusive call is a rough fit, not a confirmed value.

These compounds were tested against Lysosomal alpha-glucosidase (Homo sapiens) (UniProt P10253) (assay: qHTS Assay for Inhibitors of Human alpha-Glucosidase as a Potential Chaperone Treatment of Pompe Disease). Details: purified human GAA, 4-MU-alpha-glucoside fluorescence; activity change, negative = inhibition: at 76.9 µM (top of the series) unless noted.
Procedure, shortened: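 Fluorogenic assay: 4 nM human alpha-glucosidase with 400 uM 4-methylumbelliferyl-alpha-D-pyranoside in 50 mM citrate/phosphate, 0.005% Tween-20, pH 5.0, 20 min at room temperature. Compounds tested up to 77 uM; AC50 from Hill fits.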
Potency means the concentration at half of the fitted maximal effect; tags describe the fitted curve by direction and shape.
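Wherever activity change, negative = inhibition is given: plate controls were uninhibited enzyme wells for no effect and no-enzyme background for full effect.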

Potency, inconclusive:
CC(C)CCNC(=O)C(c1ccco1)N(Cc1ccc(F)cc1)C(=O)c1snc(C(N)=O)c1N (stereo not drawn) 50.1 µM [inhibitor, single point]
O=c1cc(CN2CCN(S(=O)(=O)c3ccc4c(c3)OCCO4)CC2)c2ccc(O)cc2o1 28.2 µM [activator, partial curve]
O=C(C1=C(O)C(=O)N(c2ncccn2)C1c1ccc(Cl)c(Cl)c1)c1ccco1 (stereo not drawn) 56.2 µM [inhibitor, single point]
C=CCn1c[n+](CC(=O)c2ccc(Br)s2)c2ccccc21 28.2 µM [inhibitor, single point]
COc1cc2c(cc1OC)C1=C(C#N)CN(C3CCCCC3)CN1CC2 1 µM [inhibitor, single point]
CCOC(=O)c1nnn(CC(=O)Nc2cccc(Cl)c2C)c1C(=O)OCC 6.31 µM [inhibitor, single point]
O=C(NC(Cc1c[nH]c2ccccc12)C(=O)N/N=C/c1ccc(Br)cc1)c1cccs1 (stereo not drawn) 2.24 µM [inhibitor, full curve]
COc1cc(/C=C(\C#N)c2ccccn2)ccc1OCC(=O)Nc1cccc(C(F)(F)F)c1 35.5 µM [activator, partial curve]
CCCC(=O)c1cc2c(cc1NC(=O)c1cccs1)OCCO2 12.6 µM [inhibitor, single point]
C/C(=N/NC(=O)c1cc(-c2ccc(Br)s2)[nH]n1)c1ccco1 4.47 µM [inhibitor, full curve]
O=C(COc1ccc(/C=N/NC(=O)c2cc3ccccc3o2)cc1Cl)Nc1ccccc1 39.8 µM [activator, single point]
Nc1cc(=O)[nH]c(SCCOc2ccccc2)n1 5.62 µM [activator, full curve, poor fit]
O=C(COC(=O)c1ccc(Br)o1)Nc1cccc(S(=O)(=O)N2CCCCCC2)c1 50.1 µM [inhibitor, single point]

Activity change, negative = inhibition, inconclusive:
CCC(C)(C)n1nnnc1C(c1cccnc1)N1CCC(Cc2ccccc2)CC1 (stereo not drawn) 15.3% [activator]
CCCN1C2CCCC1CC(NC(=S)Nc1ccc(OC)cc1)C2 (stereo not drawn) 16.1% [activator]
CN1CCN(C(=O)c2cc3nc(-c4ccco4)cc(C(F)(F)F)n3n2)CC1 15% [activator]
CC(O)CCC(=O)NNC1=CC(=O)CC(C)(C)C1 (stereo not drawn) 15.7% [activator]
COc1ccccc1-c1nnc(N)s1 12% [activator]
